Measurements published in PubChem BioAssay AID686970 (National Center for Advancing Translational Sciences (NCATS), 2013).
About 6,000 (1.7%) of roughly 360,000 compounds were called active. The inconclusive results got no clear call from the source; some entries with a clear call stand among them for comparison. Calls come from the whole dose curve; as a rule, active = well fitted cell-killing curve with a large enough effect; inconclusive = small, poorly fitted or top-dose-only effect, or effect the other way; inactive = flat fitted curve, though single readings scatter. No potency is given beside an inconclusive call; the fits are too rough.
Potency is the fitted concentration of half-maximal effect; tags give direction and shape of the fitted curve.

Assay: qHTS for induction of synthetic lethality in tumor cells producing 2HG: qHTS for the HT-1080-NT fibrosarcoma cell line;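 note: NT is the 2HG producing partner of a matched IDH1 knockdown line; nearly all actives have a fitted effect of over 55% in size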;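 for activity, negative = less viability: 0% = DMSO-treated cells and -100% = media-only wells without cells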
Settings: HT-1080-NT fibrosarcoma viability, CellTiter-Glo ATP luminescence, 48 h; activity, negative = less viability: at 46.1 µM (top of the series) unless noted
Method in brief: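 750 cells/well, RPMI + 5% FBS; 2 h settle, compound pin-transfer, 48 h at 37 degrees C. CellTiter-Glo 10 min RT, luminescence. Normalized to DMSO and media-only wells.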
For COc1cc2c(cc1OC)CN(C(=O)COc1ccccc1[N+](=O)[O-])CC2, the Potency was “inactive”. For CCSc1nnc(NC(=O)c2ccccn2)s1, the Potency was inconclusive [cytotoxic, partial curve]. In the case of CCOc1cc(CNCCSc2nnnn2C)cc(Br)c1OCc1ccc(F)cc1, the Potency is reported as active: 23.1 µM. With O=C(Oc1ccccc1C(=O)Oc1ccccc1)c1cccnc1 the Potency was inconclusive [cytotoxic, single point]. With C#CCOCCOCCOCCNc1nc(N2CCN(C(=O)CCCCCCCCCCNC(=O)[C@H]([C@@H](C)CC)n3cc(CCCCN=C(N)N)nn3)CC2)nc(N2CCN(C(=O)CCCCCCCCCCNC(=O)[C@H](CO)n3cc(CCCSC)nn3)CC2)n1 the Potency was active: 23.1 µM. With O=C(COc1ccc(Cl)cc1)Nc1ncc([N+](=O)[O-])s1 the Potency was inconclusive [cytotoxic, partial curve]. In the case of CCOC(=O)c1c(C)nc2cc(C)cc(C)n12, the Potency is reported as inconclusive [rising, partial curve, poor fit]. In the case of CC(C)CCNC(=O)CCCC1=NS(=O)(=O)c2ccccc2N1, the Potency is reported as inconclusive [rising, full curve]. In the case of COCCNc1nc(Oc2ccc(NC(C)=O)cc2)c2sc(-c3ccccc3)cc2n1, the Potency is reported as inconclusive [cytotoxic, partial curve, poor fit]. In the case of CCCCNC(=O)c1cc2c(=O)n3cccc(C)c3nc2n(Cc2ccncc2)c1=N, the activity, negative = less viability is reported as inactive: 9.84% [at 9.24 µM]. With CC(=O)c1ccc(NC(=O)C(C)OC(=O)CCCN=C2NS(=O)(=O)c3ccccc32)cc1 (configuration not stated) the Potency was “inactive”. For OCCN(Cc1ccccc1)Cc1cccc(Cl)c1Cl, the Potency was inconclusive [cytotoxic, single point]. For Cc1cc(NC(=O)COC(=O)C2CC(=O)N(c3ccccc3Cl)C2)no1 (configuration not stated), the Potency was “inactive”. In the case of O=c1c(/C=N/O)c(Nc2ccccc2)nc2ccccn12, the Potency is reported as inconclusive [cytotoxic, single point]. With COc1ccc(Nc2nc(N)nc(CSC(=S)N3CCCCC3C)n2)cc1 (configuration not stated) the Potency was inconclusive [cytotoxic, partial curve]. In the case of CN1CCN(CC(=O)Nc2ccc(Oc3ccccc3)cc2)CC1, the Potency is reported as inconclusive [cytotoxic, single point]. With O=C(O)CC(NC(=O)c1sc2ccccc2c1Cl)c1ccc(OC2CCCC2)cc1 (configuration not stated) the Potency was inconclusive [cytotoxic, single point]. With O=C(Nc1ccc(NC(=O)c2ccc(Cl)cc2Cl)cc1)c1cccs1 the Potency was inconclusive [cytotoxic, partial curve]. With COc1ccccc1Nc1nc(-c2sc(NC(=O)c3ccco3)nc2C)cs1 the Potency was inconclusive [cytotoxic, single point]. For COc1cccc(OCCCn2cc(/C=C3/C(=N)N4C=C(C)SC4=NC3=O)c3ccccc32)c1, the Potency was inconclusive [cytotoxic, partial curve]. In the case of CCC1CCCCN1CCCNC(=O)CNC(=O)Cn1ccc2ccccc2c1=O (configuration not stated), the Potency is reported as inconclusive [rising, full curve, poor fit]. For COC(=O)c1ccc(NC(=O)C23CCC(C)(C(=O)O2)C3(C)C)cc1 (configuration not stated), the Potency was “inactive”. With Cc1c(C(=O)N2CCCC2(C)C(=O)NCC(C)C)oc2ccccc12 (configuration not stated) the Potency was “inactive”. For COc1cccc(OCC(Cn2c(C)nc3ccccc32)OC(C)=O)c1 (configuration not stated), the Potency was inconclusive [cytotoxic, single point]. In the case of CCOc1ccc(CN(C(=O)c2oc3cc(C)ccc3c2C)C2CCS(=O)(=O)C2)cc1 (configuration not stated), the Potency is reported as inconclusive [cytotoxic, single point]. In the case of Cc1cc(C)c(NC(=O)CN(C)CC(=O)Nc2cccc(S(=O)(=O)N(C)c3ccccc3)c2)c(C)c1, the Potency is reported as “inactive”. With CCCCCOP(=O)(OCCCCC)C1(NS(=O)(=O)c2ccccc2)C=CC(=O)c2ccccc21 (configuration not stated) the Potency was inconclusive [cytotoxic, single point]. In the case of Cc1ccc(C(=O)Nc2ncc([N+](=O)[O-])s2)cc1, the Potency is reported as active: 18.4 µM. For C/C(=N\NC(=O)c1ccc(N(C)C)cc1)c1ccc(C)cc1C, the Potency was inconclusive [cytotoxic, single point]. With Cc1ccc(C)c(CC(=O)N2CCCCC2c2cc(C(=O)Nc3ccc(F)c(Cl)c3)no2)c1 (configuration not stated) the activity, negative = less viability was inconclusive: -25.1% [cytotoxic]. For CN(C)C(CNC(=O)c1coc2ccccc2c1=O)c1ccccc1 (configuration not stated), the Potency was inconclusive [cytotoxic, partial curve]. For CN(C)c1ccc(N=C/C=C2\N(C)c3ccccc3C2(C)C)cc1, the Potency was inconclusive [cytotoxic, single point]. In the case of C=CCn1c(CNc2ccccc2)nnc1SCC(=O)N/N=C/c1ccc(O)cc1O, the Potency is reported as inconclusive [cytotoxic, single point]. With CCOC(=O)[C@]12Cc3c(cc(OC)c(OC)c3OC)[C@H]1N(CCC(=O)OC)C(=O)c1cc(OC)ccc12 the Potency was inconclusive [cytotoxic, single point]. For COc1cc2c(cc1O)C(SC)=NC(C)(C)C2, the Potency was inconclusive [cytotoxic, single point]. With Cc1ccsc1/C=N\NC(=O)c1n[nH]c2c1CCC2 the Potency was active: 6.51 µM. For CC(=O)c1ccc(Nc2nc(-c3sc(C)nc3C)cs2)cc1, the Potency was inconclusive [cytotoxic, partial curve]. In the case of COC(=O)[C@]1(Cc2ccccc2)N[C@H](c2ccc(-c3cccc(Cl)c3)cc2)[C@@H]2C(=O)N(C)C(=O)[C@@H]21, the Potency is reported as inconclusive [cytotoxic, partial curve]. With COc1ccc(N2CCN(C(c3ccccc3)c3sc4nc(C)nn4c3O)CC2)cc1 (configuration not stated) the Potency was “inactive”. For O=C(OCCN1CCCC1)C1(c2ccccc2)CCCC1, the Potency was “inactive”. In the case of COc1cc(C(C(=O)NCc2ccccc2)N(C(=O)c2snc(C(N)=O)c2N)C2CCCC2)cc(OC)c1OC (configuration not stated), the Potency is reported as “inactive”. In the case of O=C(Nc1ccccc1)C1=C[C@H](c2ccc(C(F)(F)F)cc2)C[C@H](OCc2ccc(CO)cc2)O1, the Potency is reported as inconclusive [cytotoxic, single point].
